# The full ranking holds about 33,000 sequences; the median of “E-score (-0.5 to 0.5)” is about -0.017, and the highest 2% start at about 0.3. Some of the results follow.
# Biological target: T1, Sut1 (UniProt P53032)
# T1 sequence: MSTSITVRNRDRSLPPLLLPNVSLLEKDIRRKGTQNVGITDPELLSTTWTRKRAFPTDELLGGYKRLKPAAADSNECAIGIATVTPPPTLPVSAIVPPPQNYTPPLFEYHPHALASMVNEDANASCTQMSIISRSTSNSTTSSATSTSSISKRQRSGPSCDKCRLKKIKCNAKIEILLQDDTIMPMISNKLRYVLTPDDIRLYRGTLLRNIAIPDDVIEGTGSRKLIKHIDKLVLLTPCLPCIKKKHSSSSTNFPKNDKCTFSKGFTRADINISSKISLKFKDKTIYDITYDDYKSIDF
# Assay: PBM E-score (8-mer binding enrichment) (E-score (-0.5 to 0.5)); higher = stronger / more preferred TF binding; most listed sequences are background and not binding sites
# Conditions: protein concentration: 200 nM; construct: GST-full length
# In short: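 Yeast transcription factors, full-length or as DNA-binding domains, were expressed with a GST tag using PURExpress in vitro transcription/translation. At about 100-200 nM they were applied to universal all-10-mer Agilent arrays, double-stranded by primer extension on fresh or once-stripped slides. Fluorescent anti-GST detected bound protein, and masliner normalised the scans. E-scores for ungapped eight-base words, pooled with reverse complements, came from the Universal PBM Analysis Suite.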
row,Sequence,PBM E-score
1,CTCGGCAA,0.0287
2,ACCGAAGA,0.222
3,CAAGCAAC,-0.124
4,AATTCTAG,0.131
5,ATTGGCTA,0.0446
6,GTAACGTA,0.0551
7,CTTTATCC,0.00753
8,GTGACCAA,0.0651
9,CTCTGGCC,-0.251
10,ATGATACG,0.227
11,AGATTTCG,0.219
12,AGAGTTGA,0.0231
13,CATTTCTA,0.228
14,GAACCCAC,0.0354
15,ACCGGCCG,0.135
16,TGTACCAA,-0.0282
17,GAAGTCCC,-0.219
18,GACGGGAA,-0.132
19,TCACAGCA,0.0299
20,GAATTAGC,0.0359
21,TGCGCAAA,0.0678
22,AACACACA,-0.00438
23,AAAGTAAT,0.204
24,AGAAGTAC,-0.186
25,GAGATCAC,-0.0626

row,Sequence,PBM E-score
1,GCGGTACC,-0.0706
2,GTCGTGAA,-0.257
3,TGCCAGCA,-0.128
4,CAAGGTTA,0.00016
5,CAGACCAA,0.0753
6,ACCTCCGC,-0.104
7,CAAGCACA,-0.196
8,AATAATTG,0.18
9,CTTGTTCA,0.032
10,ACAGTGGG,-0.195
11,AAAGTATA,0.214
12,CCGTACGG,-0.00184
13,ATAACGAA,0.191
14,AACGGCGG,-0.0398
15,CAACAGGG,-0.117
16,AGCGACCG,-0.0654
17,ACAGAGTG,-0.124
18,AGAATAAA,0.274
19,AGGGACAT,-0.134
20,GACGGCTA,0.0151
21,GTGCCTAA,-0.161
22,AATGATAT,0.261
23,TAAGAATA,-0.086
24,ATGCGTCG,-0.0134
25,CATGCCCG,0.0529

row,Sequence,PBM E-score
1,GCAAAATA,0.254
2,GCAATAGC,0.0227
3,CTTCTTCA,-0.102
4,GGTCGACC,0.0475
5,ATCAGTAA,0.125
6,CGCAATGA,-0.0747
7,CATCATAA,0.166
8,CCGTGGTA,-0.156
9,CCAGAAAA,0.137
10,CTAATGAC,-0.1
11,AACGGCCC,-0.142
12,CAGTAAAA,0.177
13,ACGGTATC,-0.0822
14,ATCGTGAA,0.168
15,CCGATAGA,-0.00095
16,CAACAACG,0.00201
17,CCTTTAGA,0.0635
18,TATCACGA,-0.0001
19,ATATAAGG,0.205
20,CCATCAGG,-0.325
21,ACAAACCT,-0.0104
22,AATTTCAA,0.215
23,GTAAGAAC,0.215
24,CTCGTAAC,-0.00465
25,GTATGCTA,-0.0844

row,Sequence,PBM E-score
1,CACCACAA,-0.108
2,CCGCTAGG,-0.00352
3,GTAATATA,0.281
4,AACCTTCT,-0.00228
5,CGGGCACG,-0.13
6,ACTGGGCA,-0.161
7,ACGTCGCA,-0.276
8,GCGCAATA,-0.0777
9,GGCACATA,-0.144
10,AGAAGGGC,-0.136
11,ATCAGGGG,-0.231
12,GTGTCCCA,-0.318
13,AGGTCGAG,-0.257
14,GGAGGCAA,-0.144
15,CAGCGAAC,0.0392
16,CACACACG,-0.0409
17,AGAGATAA,0.063
18,AACGCAGA,-0.00521
19,AGTTTTTC,0.236
20,CGTGGACC,-0.216
21,ATCGGCTG,0.0251
22,ATCGATTC,0.122
23,GGGCTGAA,-0.092
24,CGTTGCCA,-0.0882
25,GACGGTGA,-0.215

row,Sequence,PBM E-score
1,CCATTCGA,-0.195
2,CGTAGAGC,-0.295
3,CTTCCCAC,-0.0751
4,GCAACCAA,0.0756
5,TCAACGCA,0.0225
6,GACCCTCC,-0.0622
7,ATCGACGG,-0.0907
8,AGAACTAA,0.141
9,GGAACACC,0.0616
10,GGCTCTAC,-0.205
11,TAAGACAA,0.0479
12,AAGATGTA,0.0242
13,CTCCGAGC,0.437
14,CATAATTA,0.317
15,ACCCTAAT,-0.101
16,ACGGGTTC,-0.119
17,CGGATCAA,0.16
18,CCGCCGCA,-0.0598
19,CGTCCACA,-0.126
20,CCCGGATA,0.123
21,CTCTCATC,0.113
22,CATCGGGA,0.0182
23,GGCAAATA,0.0393
24,ACACCGAC,0.0125
25,ATGATTTA,0.222

row,Sequence,PBM E-score
1,GTCCCATA,-0.269
2,CAGGAGGG,-0.32
3,CGGACACC,0.00585
4,TAGTCTGA,-0.0642
5,GTCCGACA,0.366
6,GGGCGTTA,-0.0386
7,AGCGGAGC,0.137
8,CGAATTGC,0.118
9,AGGTACCG,-0.0244
10,GGACTATA,0.286
11,GAATCTGC,0.00471
12,TCGCGGAA,-0.0199
13,CCGACCGA,0.0287
14,GAGCCGCA,-0.125
15,CTACCCCC,-0.2
16,ATTAGCAC,0.0145
17,GGACTGCC,-0.0114
18,ATACGGAT,0.0822
19,ATCCGGCG,-0.00912
20,ACAGCGCA,-0.217
21,AGTTTACA,0.106
22,ATGTGAAT,0.0892
23,AGCTACAG,-0.213
24,AAATCCAT,0.102
25,CCAAGCGC,-0.107

row,Sequence,PBM E-score
1,CCTCCTTC,-0.156
2,AAAGAAGC,0.15
3,CCGACTCC,0.321
4,GGTAATCA,-0.126
5,TAAAAGGA,0.0609
6,CTTGCGTC,-0.165
7,GCGAATTA,0.23
8,AGAGAGAC,-0.144
9,GACGTGGA,-0.0991
10,AAGTAGCC,-0.175
11,AACATTTC,0.152
12,ACAATTGG,-0.142
13,GAGCTTGC,-0.242
14,CCCTTTTA,-0.127
15,CGGACTAG,0.452
16,GCCATACC,-0.234
17,TCGTCAGA,-0.2
18,GGCGAGGA,-0.214
19,GAGTTATA,0.2
20,AGGATAGG,-0.0118
21,GCGGCAAC,-0.143
22,ACATGCGA,-0.308

# — the supplement of paper PMC3334620
